Source: PubChem BioAssay AID1508624 (National Center for Advancing Translational Sciences (NCATS), 2021)
Screen size: about 48,000 compounds; about 120 (0.25%) were called active. About 4% were inconclusive and are not listed. Calls come from the whole dose curve; as a rule, active = well fitted activation curve with a large enough effect; inconclusive = small, poorly fitted or top-dose-only effect, or another doubt; inactive = no such curve, though single readings can be large or run the other way. Some of the results follow.

Experiment: Primary qHTS for Identification of Small Molecule Activators of Huntingtin-Antisense Promoter Activity; note: nearly all actives have a fitted effect of over 55% in size
Conditions: HEK293 HTT-AS promoter firefly luciferase reporter, 24 h; series mostly up to 57.5 µM; activity change, positive = activation: at the top concentration
Method in brief: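 Quantitative HTS used concentration series of up to 57.5 uM final on HEK293 luciferase reporter cells, 24 h at 37 degrees C. Readout was Dual-Glo firefly luminescence.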

Activity change, positive = activation, inactive:
COc1ccc(-c2cc3nc(C)c(CCC(=O)NC4CCCCC4)c(C)n3n2)c(OC)c1 -6.4%, COC(=O)c1nnn(CC(=O)NC(=O)Nc2c(C)cccc2C)c1C(=O)OC -14.9%, COc1ccc(C2CC(=O)c3cc(-c4nc(-c5ccc(Cl)cc5)cs4)c(=O)[nH]c3C2)cc1OC (configuration not stated) -19.3%, NS(=O)(=O)c1ccc(NC(=O)C2Cc3ccccc3N2C(=O)c2ccccc2)cc1 (configuration not stated) -12.6%, CCn1cc(C(=O)N2CCN(c3cccc(C)c3C)CC2)c2cc(OC)c(OC)cc2c1=O -18.5%, CCCCN(CC)CCCNC(=O)c1nn(C)c2c1CSc1ccccc1-2 -0.104%, Cc1ccccc1C(=O)n1nc(-c2cccnc2)nc1NCc1ccccc1 -27.2%, COc1ccc(OC)c(CCNC(=O)Cn2ncc3c([nH]c4ccccc43)c2=O)c1 -3.82%, CCn1cc2nc(SCC(=O)Nc3ccccc3C(F)(F)F)n(Cc3ccc(C)cc3)c(=O)c2n1 -45.2%, COCCCNC(=O)CCC(=O)NNc1nc2ccccc2c2nc(C)nn12 -9.24%, COc1ccc(N2CC(NC(=O)C(c3ccccc3)c3ccccc3)CC2=O)cc1OC (configuration not stated) -14.4%, COc1ccccc1CNS(=O)(=O)c1cnc(N)nc1 -10.5%, CC[C@@]1([C@@H]2O[C@@H]([C@H]3O[C@@](O)(CO)[C@H](C)C[C@H]3C)C[C@H]2C)CC[C@H]([C@]2(C)CC[C@]3(C[C@H](O)[C@@H](C)[C@@H]([C@@H](C)[C@@H](OC)[C@H](C)C(=O)O)O3)O2)O1 -37.3% [at 25.1 µM, percent change from vehicle, -100% = no light], COc1ccc(C2c3c(n(C)c4ccccc34)C(=O)N2CC(=O)Nc2cccc(F)c2)cc1 (configuration not stated) -24.5%, COc1ccc(NC(=O)c2oc3ccc(S(=O)(=O)N4CCOCC4)cc3c2C)cc1 -28.4%, Cc1ccc(N2CC(C)Cn3c2nc2c3c(=O)n(Cc3cccc(Cl)c3)c(=O)n2C)cc1 (configuration not stated) -5.66%, CCCc1cc(=O)[nH]c2nnc(SCC)n12 8.21%, O=c1oc2ccc3ccccc3c2cc1-c1nnc(Nc2ccc(F)cc2)s1 -13.6%, O=C(c1cccn1-c1nnc(N2CCCC2)s1)N1CCN(c2ccc(Cl)cc2)CC1 -16.6%, COc1cc(C2Nc3c(C)cc(C)cc3-c3cc(C)nn32)cc(OC)c1O (configuration not stated) -9.35%, Cc1ccc2c(c1)C(c1ccccc1)N(C(=O)Cc1ccc(F)cc1)CC(=O)N2 (configuration not stated) -8.14%, CCCS(=O)(=O)NCCc1sc2nc(-c3ccc(F)cc3)nn2c1C -3.5%, Cc1cc(C)n(-c2nnc(Nc3ccc(C)c(Cl)c3)c3ccccc23)n1 -36.8%, Cn1c(=O)[nH]c2cc(-c3noc(-c4ccc(C#N)cc4)n3)ccc21 -8.07%, COc1ccc(Cn2c(C(=O)O)c(CNCCc3cc(OC)ccc3OC)c3ccc(C)cc32)cc1 -44.1%, COc1ccc(C2=NC(C)(C)N(CC(=O)Nc3cccc(C)c3)C2=O)cc1 -18.7%, CN(C)C(=O)c1c(NC(=O)c2ccccc2F)sc2c1CCCC2 -7.83%, CC(=O)Nc1ccc(S(=O)(=O)NCC2CCC(C(=O)NCCN(CC(C)C)CC(C)C)CC2)cc1 (configuration not stated) -10.6%, O=C(COc1ccc2ccccc2c1)NC1CC(=O)N(c2cccc(F)c2)C1 (configuration not stated) -10.7%, Nc1nc2ccc([N+](=O)[O-])cc2s1 5.18% [at 116 µM, percent change from vehicle, -100% = no light], Cc1ccc(S(=O)(=O)Nc2nc3n(n2)C(c2ccc(F)cc2)C=C(c2ccccc2)N3)cc1 (configuration not stated) -24.1%, CC1=C(C(=O)Nc2ccc(Cl)cc2)C(CC(C)C)n2nc(SCc3ccccc3C)nc2N1 (configuration not stated) -11.8%, CCOc1ccc(CCNC(=O)c2cnc3sc(N4CCCC4)nn3c2=O)cc1 -31.2%, COc1ccc(NS(=O)(=O)c2ccc3[nH]c4c(c3c2)CCCC4)cc1OC -47.3%, Cc1ccc(C)c(NC(=O)c2ccc(CN3CC(=O)N4CCCCC4C3=O)cc2)c1 (configuration not stated) -5.24%, CC(=O)Nc1ccc(NC(=O)c2ccc3c(c2)N(Cc2cccc(Cl)c2)C(=O)c2ccccc2S3(=O)=O)cc1 -27.2%, CCOC(=O)C(C)Sc1ccc2nnc(CCNS(=O)(=O)c3ccccc3)n2n1 (configuration not stated) -4.51%, CCn1c(CN2CCCCC2)nc2cc(NC(=O)c3cc(OC)c(OC)c(OC)c3)ccc21 -14%, CN(Cc1ccccc1)C(=O)c1nc(-c2ccc(Cl)cc2)n2c1CCCCC2 -15.4%, CC1N=C2c3ccccc3N=C(SCC(=O)NCCc3ccccc3)N2C1=O (configuration not stated) 8.21%, COc1ccc(Nc2c3c(nc4ccc(NC(=O)c5ccc(F)cc5)cc24)CCCC3)cc1OC -27.9%, O[C@@H](c1cc(C(F)(F)F)nc2c(C(F)(F)F)cccc12)[C@H]1CCCCN1 -27%, Cc1ccc(-n2nc3c(=O)n(C(C)C(=O)NCc4ccco4)nc(C)c3c2C)cc1 (configuration not stated) -26.5%, NS(=O)(=O)c1cc2c(cc1C(F)(F)F)NC(Cc1ccccc1)NS2(=O)=O (configuration not stated) -4.29%, Cc1ccc(Cl)cc1N1CCN(CCCNC(=O)c2ccc3nc(N4CCCCC4)sc3c2)CC1 -36.3%, O=C(NC1(C(F)(F)F)NC(=O)N(CCc2ccccc2)C1=O)c1ccc(Cl)cc1 (configuration not stated) -27.7%, CCn1ccc2c(OCC(=O)Nc3ccccc3C(F)(F)F)cccc2c1=O -34.5%, COC(=O)CC1Oc2ccc(Cl)cc2-n2cc(-c3ccccc3)nc21 (configuration not stated) -21.3%, Oc1c(C(c2ccccc2)N2CCC(O)CC2)sc2nc(-c3ccco3)nn12 (configuration not stated) -15.5%, COc1ccc(-c2c(C)nn3c(C(F)(F)F)cc(-c4ccccc4)nc23)cc1 -7%, COc1ccc(OC)c(NC(=O)c2cc(C3CC3)nc3c2c(C)nn3-c2ccc(C)cc2)c1 -18.7%, O=C(Cn1cc(SCc2ccccc2F)c2ccccc21)N1CCCCC1 17.8%, Cc1cc(C)cc(NC(=O)Cc2c(C(=O)O)c(C)cn2C)c1 -8.26%, O=C(NCc1ccco1)c1ccc2c(c1)N(Cc1c(F)cccc1Cl)C(=O)c1ccccc1S2 -28.5%, CCCCCCCCCCCCCCCCC(C(=O)O)C(O)(CC(=O)O)C(=O)O (configuration not stated) -11.5%, COc1ccc(C(=O)NCc2ccc3c(c2)CCN3C(=O)c2ccc(C)cc2)cc1 -23.3%, CC(=O)c1cccc(NC(=O)C2CCN(S(=O)(=O)c3ccc4[nH]c(=O)ccc4c3)CC2)c1 -8.31%, Cc1ccc(CNC(=O)C2CCN(Cc3nc(-c4cccc(Br)c4)oc3C)CC2)cc1 -9.32%, CCOc1ccc(-n2c(=O)c3c4c(sc3n(CC(=O)NC(C)CC)c2=O)CCCC4)cc1 (configuration not stated) -9.01%, Cc1cccc(-n2c(=O)c3ccccc3n(Cc3ccccc3)c2=O)c1 -26.9%, Cc1ccc(-n2nc3ccc(NC(=O)COc4ccccc4)cc3n2)cc1Cl -12.2%, CCc1cc2c(cc(C(=O)OC)n2Cc2nc(-c3ccc(C)cc3)oc2C)s1 17%, O=C(CSc1nc2c([nH]c3ccccc32)c(=O)n1-c1cccc(C(F)(F)F)c1)N1CCc2ccccc21 -15.4%, CCOc1ccc(N(CC)C(=O)c2nn(-c3ccc(OC)cc3)c(=O)c3c2c2ccccc2n3C)cc1 -12.8%, COc1cccc(N2CCN(C(=O)CCCCCn3c(=O)[nH]c4ccccc4c3=O)CC2)c1 -9.21%, COc1ccccc1CNC(=O)C1CCN(S(=O)(=O)c2ccc3c(c2)CCCN3C(C)=O)CC1 -15.7%, CC(C)c1ccc(NC(=O)CSc2nc3ccccc3nc2Cc2ccccc2)cc1 -10%, CCOc1ccccc1NC(=O)Cn1nnc(C(=O)NCc2ccc(F)cc2)c1N -8.59%, CN(C)CCNC(=O)C(=O)NCC(c1cccnc1)N1CCN(c2ccc(F)cc2)CC1 (configuration not stated) -3.06%, COc1ccc(Cn2ccc3nc(C)c(C(=O)N4CCN(c5ccc(OC)cc5)CC4)cc3c2=O)cc1 -24.2%, Cc1ccc(S(=O)(=O)N(C)Cc2nc(-c3ccccc3)oc2C)cc1 -20.2%, CCc1nc2nc(C)c(NS(=O)(=O)c3ccc(C)cc3)c(=O)n2[nH]1 -7.99%, COc1ccc2c(c1)c1c(c(=O)n(-c3ccccc3C)c(=O)n1C)n2C -8.82%, CCN(CC)S(=O)(=O)c1cccc(C(=O)Nc2sc3c(c2C#N)CCC(C)C3)c1 (configuration not stated) -35%, Cc1cc(C)c(S(=O)(=O)N2CCC(N3CCN(Cc4ccccc4)C(=O)C3=O)CC2)c(C)c1 8.85% [at 11.5 µM, percent change from vehicle, -100% = no light], COc1ccc(-n2ncc(C(=O)N3CCN(c4cc(C)ccc4C)CC3)c2C2CCN(C(=O)OC(C)(C)C)CC2)cc1 -0.675%, CCN(CC)CCNC(=O)c1cn(CCOC)c(=O)c2c1c1ccccc1n2C -7.04%, COc1ccc(CNCc2c(C(=O)O)c(C)n(Cc3ccccc3C)c2C)c(OC)c1 -19.4%, COc1ccc(Nc2cc(C)c3cc(NC(=O)Cc4ccc(Cl)cc4)ccc3n2)cc1 -42%, CCCCNC(=O)C1CCN(c2nc3ccccc3nc2C(F)(F)F)CC1 -14.7%, Cc1nnc(NC(=O)CSc2nccn2Cc2ccc(Cl)cc2)s1 -18%, CCOC(=O)C1=C(C)NC(C)=C(C(=O)OC)C1c1cccc([N+](=O)[O-])c1 (configuration not stated) -22.6%, Cc1nc2nc(NC(=O)CC(C)C)[nH]n2c(=O)c1Cc1ccccc1 3.44%, CCc1ccccc1NC(=O)Cc1ccc(NC(=O)N2CCCCc3ccccc32)cc1 -12.4%, CCS(=O)(=O)c1ncc(Cl)c(C(=O)Nc2c(C(=O)Nc3cccc(C)c3)oc3ccccc23)n1 23.5%, Cc1ccc(-c2c(C(=O)N3CCN(c4cc(Cl)ccc4C)CC3)oc(=O)c3ccccc23)cc1 -7.66%, COc1ccc(C)cc1NC(=O)c1cc2c(=O)n(Cc3cccnc3)ccc2nc1C -6.6%, COc1ccccc1N1CCN(C(CNC(=O)C(=O)NCc2ccc(F)cc2)c2cccnc2)CC1 (configuration not stated) -78.4%, O=C(Nc1ccc(F)c(Cl)c1)N1CCC2(CC1)Oc1ccccc1C(=O)N2Cc1ccccc1F -6.52%, CCc1ccc(C(=O)N2CCC(c3nc(-c4ccc(S(=O)(=O)N5CCCC5)cc4)no3)CC2)cc1 -19.5%, O=C(O)c1ccc(CNCc2ccccc2Cl)s1 -16.3%, Cc1cccc(CNC(=O)c2ccc3oc(=O)n(Cc4ccccc4)c3c2)c1 -20.9%
